# Measurements from PubChem BioAssay (NCATS).
# Values joined by “and” are separate entries in the source; they are usually repeats but may differ in a detail not shown here. Identical values can stand only once. The shares of active, inactive and inconclusive entries below differ from those in the screen. For some of these results: Potencies beside an inconclusive call are fits to weak or partial responses and may not hold up. Active and inactive are the calls of the source. Calls follow the shape of the dose curve; as a rule, active = well fitted curve in the direction sought with a large enough effect; inconclusive = small, poorly fitted or top-dose-only effect, or another doubt; inactive = no such curve, though single readings can be large; an effect the other way counts as inactive or inconclusive.
# Assays:
# [1] = target: Glutathione peroxidase 1 (Homo sapiens) (UniProt P07203); assay: Primary qHTS Assay for Inhibitors of Recombinant Selenoprotein Glutathione Peroxidase 1 (GPX1) (AID 1845191); settings: activity, negative = inhibition: at 48.8 µM (top of the series); also: nearly all actives have a fitted effect of over 65% in size; also: potency is read from the fitted curve at half-maximal effect; as to activity, negative = inhibition: % is scaled to controls: 0 for no effect and ±100 for the full control effect
# How it was run: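 Recombinant GPX1 (10 nM final) was preincubated with compound for 30 min at room temperature, then reacted with 1 mM GSH, 0.5 mM CHP, 0.5 mM NADPH and 100 nM glutathione reductase; NADPH fluorescence (340/450 nm) was read at 0 and 15 min.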
# [2] = target: Phospholipid hydroperoxide glutathione peroxidase GPX4 (Homo sapiens) (UniProt P36969); assay: Primary qHTS Assay for Inhibitors of Recombinant Selenoprotein Glutathione Peroxidase 4 (GPX4) (AID 1845192); also: potency is read from the fitted curve at half-maximal effect; nearly all actives have a fitted effect of over 65% in size
# How it was run: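 GR-coupled readout: 100 nM GR, 1 mM GSH, 0.5 mM NADPH; NADPH fluorescence (ex 340/em 450 nm) read at t=0 and after 15 min RT. GPX4 200 nM, preincubated 30 min with compound; substrate 0.5 mM CHP.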
# [3] = Quantitative High-Throughput drug screen in 47 multiple myeloma cell lines against the NCATS MIPE library collection: FR4_PLB cell viability assay (AID 1918924; also: nearly all actives have a fitted effect of over 35% in size; also: potency is read from the fitted curve at half-maximal effect;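 as to viability (% of DMSO control): 100% = DMSO-treated cells and 0% = wells with media only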); settings: FR4_PLB myeloma cells viability, CellTiter-Glo ATP, 48 h; viability (% of DMSO control): at 45.8 µM (top of the series)
# How it was run: (§1)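 Viability readout: CellTiter-Glo luminescence following 5 min room-temperature incubation with reagent. Prior exposure: 48 h, 37C, humidified 5% CO2, 500 cells per well.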
# [4] = Quantitative High-Throughput drug screen in 47 multiple myeloma cell lines against the NCATS MIPE library collection: Delta47_JCRB cell viability assay (AID 1918925; also: nearly all actives have a fitted effect of over 45% in size; also: potency is read from the fitted curve at half-maximal effect); settings: Delta47 myeloma viability, CellTiter-Glo ATP, 48 h; viability (% of DMSO): at 45.8 µM (top of the series) unless noted
# How it was run: as §1
# [5] = Quantitative High-Throughput drug screen in 47 multiple myeloma cell lines against the NCATS MIPE library collection: EJM_DSMZ cell viability assay (AID 1918926; also: potency is read from the fitted curve at half-maximal effect; nearly all actives have a fitted effect of over 30% in size); settings: EJM myeloma cell viability, CellTiter-Glo ATP, 48 h; viability, % of control: at 45.8 µM (top of the series)
# How it was run: as §1
# [6] = Quantitative High-Throughput drug screen in 47 multiple myeloma cell lines against the NCATS MIPE library collection: AMO1_DSMZ cell viability assay (AID 1918927; also: nearly all actives have a fitted effect of over 30% in size; also: potency is read from the fitted curve at half-maximal effect;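 as to viability, % of DMSO: 100% = DMSO only wells and 0% = cell-free media only wells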)
# How it was run: as §1
# [7] = Quantitative High-Throughput drug screen in 47 multiple myeloma cell lines against the NCATS MIPE library collection: ARP1_JJKsccF8 cell viability assay (AID 1918928; also: nearly all actives have a fitted effect of over 40% in size; also: potency is read from the fitted curve at half-maximal effect); settings: ARP1 myeloma cells viability, CellTiter-Glo ATP, 48 h; viability: at 45.8 µM (top of the series)
# How it was run: (§2)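 Myeloma cells, 500 per well, were exposed to MIPE 4.0 drugs by pin transfer for 48 h at 37 °C, 5% CO2. Viability was read as ATP luminescence with CellTiter-Glo, normalised to DMSO-only (100%) and medium-only (0%) wells.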
# [8] = Quantitative High-Throughput drug screen in 47 multiple myeloma cell lines against the NCATS MIPE library collection: KMM1_JCRB cell viability assay (AID 1918960); settings: KMM1 myeloma viability, CellTiter-Glo ATP luminescence, 48 h; viability (% of DMSO): at 45.8 µM (top of the series); also: nearly all actives have a fitted effect of over 30% in size; also: potency is read from the fitted curve at half-maximal effect
# How it was run: as §2
# [9] = Quantitative High-Throughput drug screen in 47 multiple myeloma cell lines against the NCATS MIPE library collection: Karpas417_ECACC cell viability assay (AID 1918961); settings: Karpas417 myeloma viability, CellTiter-Glo ATP luminescence, 48 h; viability (% of DMSO): at 45.8 µM (top of the series) unless noted; also: potency is read from the fitted curve at half-maximal effect;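 as to viability (% of DMSO): 100% = DMSO only wells and 0% = media only wells without cells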
# How it was run: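 Approved and investigational drugs from MIPE 4.0 were added by pin tool to 500 cells per well. After 48 hours at 37C, ATP-based CellTiter-Glo luminescence indicated remaining viability.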
# [10] = Quantitative High-Throughput drug screen in 47 multiple myeloma cell lines against the NCATS MIPE library collection: KHM11_PLB cell viability assay (AID 1918962); settings: KHM11 myeloma cell viability, CellTiter-Glo ATP luminescence, 48 h; viability, % of DMSO control: at 45.8 µM (top of the series); also: nearly all actives have a fitted effect of over 35% in size; also: potency is read from the fitted curve at half-maximal effect;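 as to viability, % of DMSO control: 0% = media only wells and 100% = DMSO treated cells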
# How it was run: as §1
# [11] = Quantitative High-Throughput drug screen in 47 multiple myeloma cell lines against the NCATS MIPE library collection: ARD_JJKsccE7 cell viability assay (AID 1918929; also: potency is read from the fitted curve at half-maximal effect;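 as to viability: 100% = DMSO-only wells and 0% = media-only wells without cells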)
# How it was run: as §1
# [12] = Primary fluorescence-based thiol-reactive (MSTI) qHTS assay for identification of artifact compounds. (AID 1845221);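 also: thiol-reactive compounds lower the probe fluorescence signal; nearly all actives have a fitted effect of over 65% in size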
# How it was run: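 Reactivity toward the thiol probe MSTI (4 uM) is scored by fluorescence at Ex/Em 525/598 nm after 1 h at room temperature. Acetyl-MSTI and MSTI define the activity scale.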
# [13] = Quantitative High-Throughput drug screen in 47 multiple myeloma cell lines against the NCATS MIPE library collection: Karpas620_DSMZ cell viability assay (AID 1918959); also: potency is read from the fitted curve at half-maximal effect; nearly all actives have a fitted effect of over 30% in size
# How it was run: as §1
# [14] = target: Nuclear receptor subfamily 1 group I member 3 (Homo sapiens) (UniProt Q14994); assay: Primary qHTS for antagonist of constitutive androstane receptor (CAR) against the NCATS DSHEA and TCM libraries (AID 1794836); settings: CAR reporter cell assay, antagonist mode, luciferase; at 40 µM (top of the series)
# How it was run: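 HepG2 cells stably carrying hCAR and a CYP2B6 luciferase reporter (2,500 cells/well) attached for 5 h, then received compounds with 48 uM CITCO for 24 h at 37C. ONE-Glo luminescence read antagonism; CellTiter-Fluor (405/540 nm) gave viability.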
# [15] = Viability counterscreen for antagonist of constitutive androstane receptor (CAR) against the NCATS DSHEA and TCM libraries (AID 1794837); settings: CAR reporter cell line viability counterscreen, qHTS;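 also: potency is read from the fitted curve at half-maximal effect; compound exposure lasted 24 h before viability reading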
# How it was run: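 HepG2-CYP2B6-hCAR cells (2,500/well) were allowed to attach for 5 h, then exposed to compounds with 48 uM CITCO for 24 h at 37C. Viability was read by CellTiter-Fluor fluorescence after 1 h.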
# [16] = target: Nuclear receptor subfamily 1 group I member 3 (Homo sapiens) (UniProt Q14994); assay: Primary qHTS for agonist of constitutive androstane receptor (CAR) against the NCATS DSHEA and TCM libraries (AID 1794839); settings: CAR agonist reporter cells, qHTS luminescence; CAR antagonist co-added at 0.75 µM; also: potency is read from the fitted curve at half-maximal effect
# How it was run: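 HepG2-CYP2B6-hCAR cells (2,500/well) were attached for 5 h, then treated for 24 h at 37 °C with compounds plus 0.75 µM PK11195. Luciferase luminescence (ONE-Glo) was read, with CellTiter-Fluor viability (Ex/Em 405/540 nm).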
# [17] = target: Metallo-beta-lactamase type 2 (Klebsiella pneumoniae) (UniProt C7C422); assay: qHTS to identify inhibitors of the New Delhi Metallo-beta-lactamase (NDM): assay validation screen against the NCATS LOPAC Collection (AID 1794843); settings: NDM-1 enzyme, nitrocefin hydrolysis, absorbance 485 nm; at 38.4 µM (top of the series);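 also: nitrocefin turnover by NDM-1 measured as 485 nm absorbance at plateau; % is scaled to controls: 0 for no effect and ±100 for the full control effect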
# How it was run: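 NDM-1 at 2 nM final in 50 mM HEPES pH 7.0 with 1 uM ZnSO4 and 0.01% Tween20 was preincubated with library compounds in DMSO. Nitrocefin (50 uM stock) was then added, and absorbance at 485 nm was read at the kinetic plateau.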
# Tags tell the direction and shape of the fitted curve.
# Sequence of UniProt P07203 (P07203 whole entry, looked up): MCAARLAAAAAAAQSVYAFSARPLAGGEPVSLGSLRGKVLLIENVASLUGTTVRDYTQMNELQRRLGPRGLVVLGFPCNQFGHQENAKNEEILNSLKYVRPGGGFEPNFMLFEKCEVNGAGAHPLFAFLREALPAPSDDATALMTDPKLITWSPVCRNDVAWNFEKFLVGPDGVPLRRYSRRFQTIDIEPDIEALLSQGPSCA
# Sequence of UniProt P36969 (P36969 whole entry, looked up): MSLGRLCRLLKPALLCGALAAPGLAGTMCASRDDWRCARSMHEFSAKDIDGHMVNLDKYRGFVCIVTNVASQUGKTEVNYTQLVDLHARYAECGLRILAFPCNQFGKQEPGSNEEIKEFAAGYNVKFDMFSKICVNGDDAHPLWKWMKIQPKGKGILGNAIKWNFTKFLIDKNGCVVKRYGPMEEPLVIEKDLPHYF
# Sequence of UniProt Q14994 (Q14994 whole entry, looked up): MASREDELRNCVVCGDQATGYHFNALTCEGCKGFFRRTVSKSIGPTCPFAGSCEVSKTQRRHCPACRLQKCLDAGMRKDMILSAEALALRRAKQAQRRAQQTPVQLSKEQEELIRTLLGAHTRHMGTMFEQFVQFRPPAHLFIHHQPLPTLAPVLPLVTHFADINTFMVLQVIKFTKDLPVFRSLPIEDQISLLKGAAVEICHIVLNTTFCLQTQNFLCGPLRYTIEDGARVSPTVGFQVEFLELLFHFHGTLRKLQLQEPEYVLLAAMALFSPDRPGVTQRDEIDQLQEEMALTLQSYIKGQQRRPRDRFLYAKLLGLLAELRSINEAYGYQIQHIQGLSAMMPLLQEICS
# Sequence of UniProt C7C422 (C7C422 whole entry, looked up): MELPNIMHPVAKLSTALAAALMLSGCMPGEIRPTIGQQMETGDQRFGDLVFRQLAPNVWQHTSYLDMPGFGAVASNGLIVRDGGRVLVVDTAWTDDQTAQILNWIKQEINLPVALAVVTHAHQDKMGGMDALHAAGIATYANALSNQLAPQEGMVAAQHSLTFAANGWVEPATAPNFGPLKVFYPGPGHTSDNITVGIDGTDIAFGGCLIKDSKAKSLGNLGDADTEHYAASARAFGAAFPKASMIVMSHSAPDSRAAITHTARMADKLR
structure (smiles),measurement,setting,value
COc1cc(C)c(C=CC(C)=CC=CC(C)=CC(=O)O)c(C)c1C,"activity, negative = inhibition",[1],inconclusive: -44.3% [inhibitor]
same,Potency,[2],"inconclusive: 28.6 µM [inhibitor, single point]"
same,Potency,[3],inactive
same,Potency,[4],"inconclusive: 5.9 µM [cytotoxic, partial curve, poor fit]"
same,Potency,[5],"inconclusive: 0.0019 µM [cytotoxic, full curve, poor fit]"
same,Potency,[6],inactive
same,Potency,[7],inactive
same,Potency,[8],"inconclusive: 0.296 µM [rising, full curve, poor fit]"
same,Potency,[9],inactive
same,Potency,[10],"inconclusive: 0.0148 µM [rising, full curve]"
COC(=O)C[C@](O)(CCCC(C)(C)O)C(=O)O[C@@H]1C(OC)=C[C@]23CCCN2CCc2cc4c(cc2[C@H]13)OCO4,Potency,[1],"inconclusive: 5.7 µM [inhibitor, full curve]"
same,Potency,[3],inactive
same,Potency,[4],inactive
same,Potency,[6],"inconclusive: 0.0132 µM [cytotoxic, full curve, poor fit]"
same,Potency,[11],"inconclusive: 37.2 µM [rising, single point]"
same,Potency,[9],inactive
same,Potency,[10],inactive
CCN(CCO)CCCC(C)Nc1ccnc2cc(Cl)ccc12 (centres undefined),Potency,[1],"inconclusive: 1.43 µM [inhibitor, single point] and inconclusive: 4.04 µM [inhibitor, single point]"
same,"activity change, negative = thiol reactive",[12],inactive: -3.32% [at 6.41 µM]
same,Potency,[3],inactive
same,Potency,[4],inactive
same,Potency,[6],"inconclusive: 18.7 µM [cytotoxic, partial curve, poor fit]"
same,Potency,[7],inactive
same,Potency,[11],inconclusive: 0.001 µM [cytotoxic]
same,Potency,[8],inactive
same,Potency,[9],"inconclusive: 20.9 µM [rising, single point]"
same,Potency,[10],"inconclusive: 4.69 µM [rising, partial curve, poor fit]"
Cc1cc(=O)oc2cc(O)ccc12,Potency,[1],active: 18 µM and active: 4.09 µM
same,Potency,[3],inactive
same,Potency,[4],"inconclusive: 9.35 µM [cytotoxic, partial curve, poor fit]"
same,Potency,[9],"inconclusive: 3.32 µM [cytotoxic, partial curve, poor fit]"
C=C1C(=O)OC(CCCCCCCC)C1C(=O)O (centres undefined),Potency,[1],"inconclusive: 29 µM [inhibitor, single point]"
same,Potency,[3],"inconclusive: 37.2 µM [cytotoxic, single point]"
same,Potency,[5],"inconclusive: 23.5 µM [cytotoxic, single point]"
same,Potency,[13],"inconclusive: 0.0021 µM [rising, full curve, poor fit]"
same,Potency,[8],"inconclusive: 0.0105 µM [rising, full curve, poor fit]"
same,viability (% of DMSO),[9],active: 74%
same,Potency,[10],inactive
O=c1cc(-c2ccc(O)c(O)c2)oc2cc(O)cc(O)c12,"activity change, negative = inhibition",[14],inactive: 8.67%
same,Potency,[15],"inconclusive: 31.6 µM [cytotoxic, partial curve]"
same,Potency,[16],"inconclusive: 5.01 µM [activator, partial curve, poor fit]"
same,Potency,[2],"inconclusive: 18 µM [inhibitor, partial curve]"
same,Potency,[4],"inconclusive: 37.2 µM [cytotoxic, single point]"
same,Potency,[6],inactive
same,Potency,[9],"inconclusive: 3.32 µM [cytotoxic, full curve, poor fit]"
same,Potency,[10],"inconclusive: 0.0019 µM [rising, full curve, poor fit]"
CS(=O)(=O)N1CCN(Cc2cc3nc(-c4cccc5[nH]ncc45)nc(N4CCOCC4)c3s2)CC1,Potency,[1],"inconclusive: 25.5 µM [inhibitor, partial curve]"
same,Potency,[2],"inconclusive: 20.2 µM [inhibitor, partial curve]"
Cc1c(C)n(Cc2ccc(-c3ccccc3C(=O)O)cc2)c2ccc(C(=O)N[C@@H](C)c3ccc([N+](=O)[O-])cc3)cc12,Potency,[1],"inconclusive: 16.1 µM [inhibitor, partial curve]"
same,Potency,[2],"inconclusive: 25.5 µM [inhibitor, single point] and active: 9.04 µM"
same,Potency,[5],"inconclusive: 33.2 µM [cytotoxic, partial curve, poor fit]"
same,Potency,[7],"inconclusive: 37.2 µM [cytotoxic, single point]"
same,Potency,[11],"inconclusive: 0.148 µM [cytotoxic, full curve]"
same,Potency,[13],active: 0.0935 µM
same,Potency,[9],active: 0.0187 µM
same,Potency,[10],"inconclusive: 37.2 µM [cytotoxic, single point]"
Oc1ccc(-c2nc(-c3ccc(F)cc3)c(-c3ccncc3)[nH]2)cc1,"activity change, negative = inhibition",[17],inactive: 6.21%
same,Potency,[3],"inconclusive: 33.2 µM [cytotoxic, single point]"
same,Potency,[5],"inconclusive: 13.2 µM [cytotoxic, partial curve]"
same,Potency,[7],"inconclusive: 37.2 µM [cytotoxic, single point]"
same,Potency,[11],inactive
same,Potency,[8],inactive
same,Potency,[9],"inconclusive: 4.69 µM [rising, partial curve, poor fit]"
same,Potency,[10],"inconclusive: 0.0662 µM [rising, full curve, poor fit]"
